Reference: paper PMC4336329 (PLoS ONE, 2015)
The whole screen tested about 310,000 compounds, of which about 2,200 (0.71%) showed an effect of 50% or more. The effect is printed as a negative number. The list shows a part of the results.

biological target: human ether-à-go-go-related gene (hERG) potassium channel (human, UniProt Q12809); assay: primary screen, population patch clamp on CHO cells stably expressing hERG
Sequence (Q12809 whole entry, looked up): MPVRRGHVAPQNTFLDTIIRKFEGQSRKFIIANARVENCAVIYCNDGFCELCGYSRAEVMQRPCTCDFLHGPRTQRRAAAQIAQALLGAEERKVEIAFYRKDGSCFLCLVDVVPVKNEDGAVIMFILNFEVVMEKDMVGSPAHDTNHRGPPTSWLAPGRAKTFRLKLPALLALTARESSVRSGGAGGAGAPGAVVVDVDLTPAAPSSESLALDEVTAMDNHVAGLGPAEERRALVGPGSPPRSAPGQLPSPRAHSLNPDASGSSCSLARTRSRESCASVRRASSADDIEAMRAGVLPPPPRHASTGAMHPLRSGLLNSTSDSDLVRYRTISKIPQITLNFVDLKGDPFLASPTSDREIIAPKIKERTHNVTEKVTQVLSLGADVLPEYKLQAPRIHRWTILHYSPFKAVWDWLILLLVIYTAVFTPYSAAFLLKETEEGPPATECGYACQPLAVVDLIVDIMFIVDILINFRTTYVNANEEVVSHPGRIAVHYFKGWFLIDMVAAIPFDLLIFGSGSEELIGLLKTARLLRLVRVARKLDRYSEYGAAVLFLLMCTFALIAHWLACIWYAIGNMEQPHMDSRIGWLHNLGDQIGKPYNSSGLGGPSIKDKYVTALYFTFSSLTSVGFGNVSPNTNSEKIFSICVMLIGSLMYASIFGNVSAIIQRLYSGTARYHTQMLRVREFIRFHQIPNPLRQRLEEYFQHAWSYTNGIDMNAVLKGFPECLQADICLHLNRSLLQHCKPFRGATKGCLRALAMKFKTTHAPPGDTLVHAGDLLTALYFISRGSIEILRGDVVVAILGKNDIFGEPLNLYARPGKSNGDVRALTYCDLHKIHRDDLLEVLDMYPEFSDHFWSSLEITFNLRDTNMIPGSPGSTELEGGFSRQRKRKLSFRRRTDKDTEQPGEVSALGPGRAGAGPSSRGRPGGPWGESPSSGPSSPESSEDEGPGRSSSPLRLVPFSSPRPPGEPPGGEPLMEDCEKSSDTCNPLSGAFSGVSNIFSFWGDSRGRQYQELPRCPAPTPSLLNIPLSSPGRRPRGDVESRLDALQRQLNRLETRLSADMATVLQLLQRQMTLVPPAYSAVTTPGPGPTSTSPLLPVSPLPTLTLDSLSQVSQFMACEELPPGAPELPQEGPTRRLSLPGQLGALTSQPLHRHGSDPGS

First: COc1ccc(C2=NOC(C)(c3nnc(-c4ccncc4)o3)C2)cc1 (stereo not drawn)
Second: COc1ccc(CCNC(=O)CSc2ccc(-c3ccncc3)nn2)cc1
The “hERG current change (%, negative = inhibition) at 1uM” value of the first is higher: 14.6% for the first, 7.32% for the second.

First: COc1ccc(C2CN(C)CC2C(=O)c2ccc(C)cc2)cc1Cl (stereo not drawn)
Second: COc1ccc(Cl)cc1NC(=O)CN(C)C(=O)CCSc1ccc(C)cc1
The “hERG current change (%, negative = inhibition) at 1uM” value of the first is lower: -23.4% for the first, 17.7% for the second.

Compared with `C=CCOc1ccc(CC2C(=O)N(C)C(=O)N(C)C2=O)cc1`, `COc1ccc(CC(=O)NNC(=O)CSc2nnc(C)n2-c2ccccc2)cc1` is lower in “hERG current change (%, negative = inhibition) at 1uM” value: 23.3% for the first, -1.11% for the second.

First: O=C(CNC(=O)c1cccs1)NCCc1ccco1
Second: CCn1c(NCc2cccs2)nc2ccccc21
The “hERG current change (%, negative = inhibition) at 1uM” value of the first is higher: 10.8% for the first, 0.401% for the second.

Compared with `Cc1cnc(C(=O)OCC(=O)NCc2ccc3c(c2)OCO3)cn1`, `O=C(NCC1CCCO1)C(=O)N/N=C\c1ccc2c(c1)OCO2` (stereo not drawn) is lower in “hERG current change (%, negative = inhibition) at 1uM” value: 9.23% for the first, -7.93% for the second.

Compared with `COc1ccc(CCN2C(=O)C(Oc3ccccc3C)C2c2ccc3c(c2)OCO3)cc1` (stereo not drawn), `COc1ccc(C2C=C(C)Nc3nc4ccccc4n32)cc1` (stereo not drawn) is higher in “hERG current change (%, negative = inhibition) at 1uM” value: -5.92% for the first, 7.08% for the second.

Compared with `Cc1ccc(CNC(=O)c2ccc(CS(=O)(=O)c3ccccc3)o2)cc1`, `Cc1nn(C)c(Oc2ccccc2)c1CCNS(=O)(=O)c1ccc(Cl)cc1` is lower in “hERG current change (%, negative = inhibition) at 1uM” value: 9.49% for the first, 6.35% for the second.

First: CCc1cccc(C)c1NC(=S)N1CCCC1C(=O)O (stereo not drawn)
Second: CCn1cc(C(=O)O)c(=O)c2cnc(N3CCN(C(=S)Nc4ccccc4)CC3)nc21
The “hERG current change (%, negative = inhibition) at 1uM” value of the first is lower: 8.15% for the first, 14.9% for the second.

First: CCOC(=O)C1CCN(C(=O)c2cc(S(=O)(=O)N3CCc4ccccc43)ccc2OC)CC1
Second: CNC(=O)c1ccsc1NC(=O)c1ccc(S(=O)(=O)N2CCCc3ccccc32)cc1
The “hERG current change (%, negative = inhibition) at 1uM” value of the first is lower: -6.4% for the first, 6.34% for the second.

First: CCOCCCNC(=O)C1CCN(S(=O)(=O)N(CC(C)C)CC(C)C)CC1
Second: NC(=O)C1CCN(c2ccc(S(=O)(=O)N3CCCCC3)cn2)CC1
The “hERG current change (%, negative = inhibition) at 1uM” value of the first is lower: 8.47% for the first, 18% for the second.

First: CCOC(=O)Cn1nc(C)c(NC(=O)c2cccc([N+](=O)[O-])c2)c1C
Second: COc1cccc(NC(=O)c2nc3nc(C)cc(C(F)F)n3n2)c1
The “hERG current change (%, negative = inhibition) at 1uM” value of the first is lower: -7.94% for the first, 13.3% for the second.

Compared with `COc1ccc(S(=O)(=O)n2ccc(-c3cnc(-c4ccccc4)s3)n2)cc1`, `COc1ccc(-c2cc(C(=O)OCC(=O)NC3CC3)c3ccccc3n2)cc1` is lower in “hERG current change (%, negative = inhibition) at 1uM” value: 11.7% for the first, 6.23% for the second.

First: CC(C)C(NC(=O)c1c(F)cccc1F)C(=O)NC1CC(C)(C)NC(C)(C)C1 (stereo not drawn)
Second: O=C(NC1CC1)c1cc2ccccc2o1
The “hERG current change (%, negative = inhibition) at 1uM” value of the first is higher: 15.8% for the first, 12.2% for the second.

Compared with `N#Cc1cc2c(nc1SCC(=O)N1CCCCC1)CCCCC2`, `Cl.O=C(CCN1CCCCC1)Nc1cccc(Br)c1` is lower in “hERG current change (%, negative = inhibition) at 1uM” value: 8.46% for the first, 2.39% for the second.

First: COC(=O)c1cc2nc(-c3ccc(OC)cc3)cc(C(F)(F)F)n2n1
Second: CO/N=C/NC(=O)c1c(OC)ccnc1Oc1ccc(Cl)cc1
The “hERG current change (%, negative = inhibition) at 1uM” value of the first is higher: 13.5% for the first, 1.44% for the second.

First: c1ccc2c(c1)ncc1cccn12
Second: CCOc1ccc(-c2nc3ccccc3c(=O)o2)cc1
The “hERG current change (%, negative = inhibition) at 1uM” value of the first is lower: 8.17% for the first, 11.9% for the second.

Going from `COc1cc(Br)c(C(C)NC(=O)c2cccc(Br)c2)cc1OC` (stereo not drawn) to `COC(=O)c1cc(OC)c(OC)cc1NC(=S)Nc1cccc(Cl)c1`, the “hERG current change (%, negative = inhibition) at 1uM” value rises from 2.43% to 11.2%.

Compared with `Cc1ccc(-c2cc(C(F)F)n3ncc(C(=O)Nc4ccc(S(=O)(=O)Nc5ccccc5C)cc4)c3n2)cc1`, `CNC(=S)Nc1ccc(-c2nc3ccc(C)cc3s2)cc1` is higher in “hERG current change (%, negative = inhibition) at 1uM” value: 6.82% for the first, 10.9% for the second.

Going from `O=C(NS(=O)(=O)Oc1ccc(Cl)cc1)OC[C@@H]1CCCN2CCCC[C@H]12` to `COc1cccc(CNC(=O)Cn2ccc3cc(S(=O)(=O)N4CCCCCC4)ccc32)c1`, the “hERG current change (%, negative = inhibition) at 1uM” value falls from 19.2% to 15.2%.

First: C=CCn1c(SCCN2CCOCC2)nc2c1c(=O)[nH]c(=O)n2C
Second: CCc1ccccc1NC(=S)N(CCCN1CCOCC1)Cc1cccs1
The “hERG current change (%, negative = inhibition) at 1uM” value of the first is higher: 8.38% for the first, -4.11% for the second.

Compared with `CCOC(=O)Nc1nc(-c2ccccc2)c(C(=O)c2ccccc2)s1`, `COc1cccc(NC(=O)C2COc3ccccc3O2)c1` (stereo not drawn) is higher in “hERG current change (%, negative = inhibition) at 1uM” value: 1.49% for the first, 10.4% for the second.

Going from `C=CCNC(=O)CC(=O)N/N=C/c1cccc(Br)c1` to `O=C(NNC(=S)Nc1ccccc1C(F)(F)F)C1CC1`, the “hERG current change (%, negative = inhibition) at 1uM” value falls from 7.57% to 3.93%.

First: COc1ccccc1CCC(=O)Nc1ccc(OC)c(S(=O)(=O)N2CCOCC2)c1
Second: O=C(c1cc2ccccc2oc1=O)N1CCN(c2ccc(N3CCOCC3)nn2)CC1
The “hERG current change (%, negative = inhibition) at 1uM” value of the first is higher: 12.5% for the first, 10.1% for the second.

Compared with `Cc1cc(C(=O)Nn2c(C3CCCCC3)nc3ccccc3c2=O)ccc1[N+](=O)[O-]`, `Cc1cc(C)cc(Nc2ccc3nonc3c2[N+](=O)[O-])c1` is lower in “hERG current change (%, negative = inhibition) at 1uM” value: 11.3% for the first, 6.34% for the second.

Compared with `Cc1cc(/C=C2/NC(=O)NC2=O)c(C)n1-c1ccc(N2CCOCC2)cc1`, `Cc1occc1C(=O)N1CCCC(N2CCN(c3cccc(Cl)c3)CC2)C1` (stereo not drawn) is lower in “hERG current change (%, negative = inhibition) at 1uM” value: 9.64% for the first, -6.5% for the second.

First: CCN(Cc1ccncc1)C(=O)CCc1nnc(CCC2CCCCC2)o1
Second: CN(C)C1(c2nnnn2-c2ccc(Cl)cc2)CCCCC1
The “hERG current change (%, negative = inhibition) at 1uM” value of the first is lower: 1.67% for the first, 9.89% for the second.

Going from `C[C@@]12CCC3[C@@](CC[C@@H]4[C@](C)(C(=O)O)CCC[C@@]34C)(C[C@H]1O)C2` (stereo partly drawn) to `O=C(CN1C(=O)NC2(CCCC2)C1=O)NCCN1C(=O)S/C(=C\c2ccccc2F)C1=O`, the “hERG current change (%, negative = inhibition) at 1uM” value falls from 12.6% to 11.5%.

First: CC(C)(C)c1ccc(OCCNC(=S)Nc2ccccc2)cc1
Second: COc1ccccc1N1C(=O)c2cccc3cccc(c23)C1=O
The “hERG current change (%, negative = inhibition) at 1uM” value of the first is lower: 10.5% for the first, 12.1% for the second.

With `CC(C)(C)Cn1c(=O)[nH]c(=O)c2cc([N+](=O)[O-])cnc21` the “hERG current change (%, negative = inhibition) at 1uM” value was 11.4%.
